Assay results published in PubChem BioAssay AID1159614 (National Center for Advancing Translational Sciences (NCATS), 2016).
Screen size: about 45,000 compounds; about 65 (0.1%) were called active. Calls follow the shape of the dose curve; as a rule, active = well fitted activation curve with a large enough effect; inconclusive = small, poorly fitted or top-dose-only effect; inactive = no such curve, though single readings can be large or run the other way. The list shows a part of the results.

Molecular target: Galactocerebrosidase (Homo sapiens) (UniProt P54803)
Sequence of UniProt P54803 (P54803 whole entry, looked up): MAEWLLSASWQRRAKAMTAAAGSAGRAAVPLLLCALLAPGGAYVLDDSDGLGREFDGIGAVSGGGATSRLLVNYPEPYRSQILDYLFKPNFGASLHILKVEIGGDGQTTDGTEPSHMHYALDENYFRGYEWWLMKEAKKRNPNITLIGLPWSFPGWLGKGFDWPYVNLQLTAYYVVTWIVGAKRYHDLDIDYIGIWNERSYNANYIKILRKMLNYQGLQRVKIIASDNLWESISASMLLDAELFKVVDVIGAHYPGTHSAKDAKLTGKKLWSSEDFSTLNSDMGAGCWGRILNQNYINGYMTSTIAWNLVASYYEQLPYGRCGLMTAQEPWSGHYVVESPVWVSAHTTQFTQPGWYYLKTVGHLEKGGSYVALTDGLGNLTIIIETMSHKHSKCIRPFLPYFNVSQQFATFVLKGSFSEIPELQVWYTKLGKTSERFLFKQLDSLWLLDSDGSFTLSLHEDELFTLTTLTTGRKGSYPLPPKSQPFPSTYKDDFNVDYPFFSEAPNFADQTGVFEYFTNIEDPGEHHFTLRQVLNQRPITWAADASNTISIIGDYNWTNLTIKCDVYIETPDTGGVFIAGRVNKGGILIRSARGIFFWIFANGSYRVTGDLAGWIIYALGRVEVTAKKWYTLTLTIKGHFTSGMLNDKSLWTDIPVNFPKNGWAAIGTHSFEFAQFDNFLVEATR
Assay: A Novel Cell-Based Assay to Identify Small Molecules for B -Galactocerebrosidase; also: 0% is about no effect; nearly all actives have a fitted effect of over 65% in size
Conditions: 145M-Twi-hGALC-G270D cells (Twitcher mouse brain line with human GALC G270D), HMU-beta-Gal fluorescence, 48 h; series mostly up to 57.5 µM; activation: at the top concentration
Summary of the method: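 Live 145M-Twi cells (Twitcher mouse brain-derived, GALC-null) stably expressing human GALC-G270D, with a wild-type GALC line, were compound-treated. Residual GALC activity was then read as fluorescence from 0.1 mM final HMU-β-gal at pH 5.2; higher signal means activation.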

activation, inactive:
COc1ccc(N2CCN(C(=O)c3cn(C)c4ccc(S(=O)(=O)N(C)C5CCCCC5)cc4c3=O)CC2)cc1 -7.31%
CC1=C(C(=O)Nc2ccc(C)cc2Cl)C2(CCCCC2)OC1=O -21.7%
COc1cc(-c2nc3ccc(Cl)cn3c2Nc2ccc3c(c2)OCO3)ccc1O -7.85%
Cn1cc(-c2cc3n(n2)CCC(=O)N3CCCC(=O)Nc2ccccc2Cl)c2ccccc21 -16.4%
Nc1nn(-c2ccccc2)nc1C(=O)OCc1ccccc1Br -7.97%
Cc1ccccc1S(=O)(=O)Cc1ccc(C(=O)NCc2ccccc2Cl)o1 -2.57%
Cc1ccc(NC(=O)c2cc(CN3CCOCC3)on2)cc1Cl -11.8%
COc1ccccc1N1CCN(CCCNc2cc(=O)n(C)c(=O)n2C)CC1 -5.14%
CCc1ccccc1NC(=O)c1cc2sc(Cl)cc2n1CC -23.7%
CCOC(=O)c1c(C)[nH]c(C)c1S(=O)(=O)NCC(=O)Nc1ccc(CC)cc1 -10.2%
O=C(c1cccs1)c1cn(CCOc2ccc(F)cc2)c2ccccc12 -29.9%
COc1ccc2c(c1)CCc1c(C(=O)Nc3c(C)nn(Cc4c(Cl)cccc4Cl)c3C)noc1-2 -5.98%
O=C(Cn1cnc2onc(-c3ccc(F)cc3)c2c1=O)N1CCN(c2ccccc2F)CC1 -20.3%
O=C(O)Cc1sc(Nc2ccc(C(=O)O)cc2)nc1-c1ccccc1 -16%
CCOC(=O)c1noc2ncn(CC(=O)Nc3cc(Cl)ccc3OC)c(=O)c12 -17.1%
Cc1cc(Br)ccc1NC(=O)c1coc(=O)c2ccccc12 -9.85%
O=C(Nc1ccc(Cl)c(Cl)c1)c1cc(S(=O)(=O)N2CCN(c3cccc(Cl)c3)CC2)ccc1F -9.28%
Cc1oc2ncn(CC(C)C)c(=O)c2c1C(=O)Nc1cccc(C(F)(F)F)c1 -12%
Cc1ccc(CNC(=O)CN(C)S(=O)(=O)c2ccc(Br)s2)cc1 -12.9%
CC(C)c1ccccc1NC(=O)CSc1nnc(COc2ccccc2)o1 -17.5%
CCOc1ccccc1CNC(=O)CCCN1C(=O)COc2ccc(C)cc21 -19%
COc1ccc(-c2cn(-c3ccc(C)cc3)c(S(=O)(=O)CC(=O)Nc3ccccc3)n2)cc1 0.102%
CCCOc1ccc(C(=O)NCC(c2ccc(OC)cc2)N2CCCCC2)cc1 (configuration not stated) -31%
CC(C)NC(=O)Cn1ccc2cc(S(=O)(=O)N3CCCCCC3)ccc21 -8.12%
CCn1c(=O)c2sccc2n2c(CCC(=O)N3CCN(c4ccccc4OC)CC3)nnc12 8.37%
O=C(NCCCCc1ccccc1)c1nn(-c2ccccc2F)nc1CO -7.47%
O=C(c1ccc(CS(=O)c2ccccc2Cl)o1)N1CCN(c2cccc(C(F)(F)F)c2)CC1 (configuration not stated) -1.87%
Cc1nn(CCC(=O)NCc2cccc(Br)c2)c(=O)c2nn(-c3ccccc3)c(C)c12 -14.4%
CC(C)OCCCn1c(SCC(N)=O)nc2c(sc3ccccc32)c1=O -3.24%
COc1ccc(-c2nnc(SCC(=O)Nc3ccccc3C)o2)cc1OC -12.4%
O=S(=O)(c1ccccc1)c1nc(-c2cccs2)oc1N1CCCCC1 -24.3%
CC(NC(=O)c1ccc(CSc2nc3ccncc3n2Cc2ccc(F)cc2)cc1)c1ccccc1 (configuration not stated) -8.28%
Cc1cccc(OCCCSc2nc(-c3ccc(C(C)(C)C)cc3)nc3cc(=O)[nH]n23)c1C -8.43%
COCCNC(=O)c1ccc2c(c1)N(Cc1ccc(C(F)(F)F)cc1)C(=O)c1ccccc1S2 -14.6%
Cc1cccc(-n2c(=O)c3c(c4cc(C)ccc4n3C)n(CC(=O)Nc3ccccc3Cl)c2=O)c1 5.39%
CCCCCn1c(=O)[nH]c2cc(C(=O)NCc3ccc(F)cc3)ccc2c1=O -8.39%
COC(=O)c1ccc(NC(=O)CSc2nc3c(c(=O)n(C)c(=O)n3C)n2Cc2ccccc2)cc1 -13.7%
COc1ccc(C(=O)NCc2nnc(SCC(=O)Nc3ccc(F)cc3)n2-c2ccccc2)cc1 -11%
Cc1ccc(NC(=O)Cn2cnc3c(oc4ccccc43)c2=O)cc1 -8.91%
Cc1ccc(C(=O)c2oc3ccccc3c2NC(=O)COc2ccc(C(C)(C)C)cc2)cc1 -5.41%
Cc1ccc(COc2cccc3cc(-c4noc(-c5ccc(C)cc5)n4)c(=O)oc23)cc1 -6.5%
CC(C)C(=O)c1cc2c(cc1NC(=O)c1ccccc1F)OCCO2 -14.6%
Cc1cccc(-n2ncc(C(=O)Nc3ccc4c(c3)OCO4)c2C2CCN(C(=O)OC(C)(C)C)CC2)c1 -4.31%
COc1ccc(Cl)cc1NC(=O)c1c(NCc2cccs2)sc2c1CCCC2 -23.9%
Oc1ccc(NCc2ccccc2OCc2ccccc2Cl)cc1 -8.53%
CN(C)c1ccc(NC(=O)CSC2=Nc3ccccc3C3=NC(CC(=O)NCc4ccc5c(c4)OCO5)C(=O)N23)cc1 (configuration not stated) -5.39%
Cc1ccc(S(=O)(=O)Nc2c(C)nc3nc(C)[nH]n3c2=O)c(C)c1 -1.72%
COc1ccccc1Cc1nc2ccccc2nc1SCC(=O)N1CCCc2ccccc21 -3.73%
Cc1ccccc1-c1noc(-c2cc(C(C)C)[nH]n2)n1 -15.3%
CC(=O)N1CCc2cc(S(=O)(=O)CCC(=O)N3CCN(c4ccccc4F)CC3)ccc21 7.43%
Cc1cc(Nc2ccc(Cl)cc2)n2cnnc2n1 -14%
COc1ccc(-c2nnc(SCC(=O)c3ccc([N+](=O)[O-])cc3)o2)cc1OC -11.7%
Cn1nc(-c2ccc(C(=O)Nc3ccc(OC(F)(F)F)cc3)cc2)c2ccccc2c1=O -30.4%
CCN(CC)S(=O)(=O)c1ccc(C(=O)O)cc1 -10.7%
CCOc1ccccc1N1CC(c2nc3ccccc3n2CCOc2ccccc2OC)CC1=O (configuration not stated) 3.8%
COc1ccc2c(c1)Cc1sc(NC(=O)c3ccc(Cl)cc3)nc1-2 -9.19%
Cc1cccn2c(=O)c3cc(C(=O)NC(C)c4ccccc4)c(=N)n(CCOCCO)c3nc12 (configuration not stated) -8.92%
O=C(NCc1ccccc1Cl)C(=O)NCC(c1cccs1)S(=O)(=O)c1ccccc1 (configuration not stated) 4.02%
N#C/C(=C\c1ccc(-c2ccc(Cl)c(C(=O)O)c2)o1)c1nc2ccccc2[nH]1 -23.9%
Cc1ccc(-n2c(SCc3ccccc3C)nc3[nH]ncc3c2=O)cc1C -2.25%
CCOc1ccc(N(C(=O)c2ccc(OC)cc2)S(=O)(=O)c2ccc3c(c2)n(C)c(=O)n3C)cc1 -1.96%
O=C(NCc1cccnc1)C1CCN(Cc2cc3ccccc3n2Cc2ccccc2)CC1 -30.2%
CCOC(=O)c1cc(OC(=O)c2cccc(F)c2)n(-c2ccccc2)n1 3.43%
CC(C)c1ccc(-c2noc(SCC(=O)N(C)c3ccc(F)cc3)n2)cc1 -18.4%
CC(=O)N1CCCc2ccc(NC(=O)c3ccc(C(F)(F)F)cc3)cc21 -12.2%
Cc1ccccc1-c1noc(-c2ccc(N3CCCC3)c([N+](=O)[O-])c2)n1 -16.1%
CCN(CC)S(=O)(=O)c1ccc2c(c1)N(CC(=O)Nc1c(C)cc(C)cc1C)C(=O)CS2 -16.1%
Cc1cc(C)cc(NC(=O)CSc2nnc(CNC(=O)c3c(F)cccc3Cl)o2)c1 -18%
COC(=O)c1cc2oc(C)cc2n1Cc1ccc(C)cc1 -12.7%
CC(C)c1ccc(NC(=O)CN2C=NS(=O)(=O)c3ccccc32)cc1 -16.1%
CCC(=O)OC1=CN(Cc2ccccc2)S(=O)(=O)c2ccccc21 -3.6%
CCC(=O)C1=C(c2ccc(F)cc2)N(C(=O)CC)n2c(nnc2C2CCCCC2)S1 -1.14%
Cc1cccc(N2CCN(C(=O)CN3C(=O)COc4ccc(S(=O)(=O)N5CCCC5)cc43)CC2)c1C -10.5%
N#C/C(=C\c1c(Oc2ccc(F)cc2)nc2ccccn2c1=O)c1nc2ccccc2s1 -7.59%
Cc1ccccc1CS(=O)(=O)c1ncc(Cl)c(C(=O)Nc2nnc(C(C)C)s2)n1 -23.9%
Cc1oc(-c2cccc(Br)c2)nc1CSc1nc2ncccc2[nH]1 -10.7%
O=C(O)CCCCC1CCSS1 (configuration not stated) -10.8%
CCCOc1ccc(C(=O)Nc2sc3c(c2C(=O)OCC)CCCCC3)cc1 -7.87%
O=C1CC(c2ccc(F)cc2)c2c(n3c(nc4ccccc43)[nH]c2=O)N1 (configuration not stated) -14.2%
COCC(=O)O[C@]1(CCN(C)CCCc2nc3ccccc3[nH]2)CCc2cc(F)ccc2[C@@H]1C(C)C -18.1%
CCc1ccc(CNC(=O)C2CCN(C(=O)c3ccc(-n4ccc5ccccc54)s3)CC2)cc1 -14.2%
Cc1cccc(OCCSc2nc3ccccc3n2CC(=O)N2CCOCC2)c1C -16.7%
CCOc1ccc(S(=O)(=O)Nc2ccc(OC)c(Cl)c2)c2cccnc12 -11.1%
CCOC(=O)N1CCN(Cc2nc3cc(NC(=O)c4ccc([N+](=O)[O-])cc4)ccc3n2C(C)C)CC1 2.15%
CCN1C(=O)c2ccccc2S(=O)c2ccc(C(=O)NCc3ccccc3OC)cc21 (configuration not stated) -8.72%
Cc1ccc(NC(=O)C2CCCN(S(=O)(=O)c3c(C)nn(C)c3C)C2)c(C)c1 (configuration not stated) -11.4%
CCOc1ccc(C2C(C(N)=O)=C(C)Nc3nc(-c4cccc(Cl)c4)nn32)cc1OC (configuration not stated) -13.8%
CSc1ccc(NC(=O)Cn2nnnc2-c2ccccc2F)cc1 -8.63%
COc1cc(/C=C/c2nc3cc(Cl)ccc3c(=O)n2-c2ccc(C)cc2C)cc(OC)c1OC -15.4%
COc1ccc(S(=O)(=O)NCC(c2ccco2)N2CCN(c3ccccc3F)CC2)cc1C (configuration not stated) -14.3%
O=C(O)c1c2c(nc3ccc(S(=O)(=O)N4CCC(C(=O)NCc5ccc(Cl)cc5)CC4)cc13)CCCC2 -9.3%
COc1cccc(CNC(=O)Cn2c(SCC(=O)Nc3ccc(C)c(C)c3)nc3ccccc32)c1 -6.89%
CCCCCOc1ccc(NC(=O)Cn2c(-c3cncs3)nc3ccccc32)cc1 -8.57%
Cc1cc(Nc2cccc(C(F)(F)F)c2)nc2ccc(NC(=O)c3cccnc3)cc12 -6.92%
CCOC(=O)c1c(C)oc2nc(C)nc(N3CCN(c4cccc(C)c4C)CC3)c12 -14.2%
CC(NC(=O)c1cc(-c2ccc(Cl)cc2)on1)c1ccccc1 (configuration not stated) -4.75%
COc1nnc(-c2ccc(N3CCCCC3)c(NC(=O)c3ccccc3)c2)c2ccccc12 -10.7%
